Data: patent US20150210762A1 (Biogen, published 2015)

T1: rat TMEM30A (CDC-50A) (rat, UniProt Q6AY41 2-328)
T1 construct: whole, on cells; also called C6orf67
T1 sequence (looked up): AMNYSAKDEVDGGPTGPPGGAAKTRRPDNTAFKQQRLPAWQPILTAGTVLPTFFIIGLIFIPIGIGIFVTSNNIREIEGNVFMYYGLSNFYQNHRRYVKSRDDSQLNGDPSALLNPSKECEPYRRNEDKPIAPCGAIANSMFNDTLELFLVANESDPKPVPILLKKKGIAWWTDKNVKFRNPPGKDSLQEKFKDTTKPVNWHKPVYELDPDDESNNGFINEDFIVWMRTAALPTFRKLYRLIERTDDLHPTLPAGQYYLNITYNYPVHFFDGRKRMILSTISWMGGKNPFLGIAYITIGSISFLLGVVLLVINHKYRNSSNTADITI

B1: agly (T299A) hFc-FC5 (pEAG2403): FC5 VHH fused to the C-terminus of human IgG1 aglycosyl Fc (Fc fusion)
chain: [here human IgG1 Fc with changes without letters]GGGSDVQLQASGGGLVQAGGSLRLSCAASGFKITHYTMGWFRQAPGKEREFVSRITWGGDNTFYSNSVKGRFTISRDNAKNTVYLQMNSLKPEDTADYYCAAGSTSTATPLRVDYWGKGTQVTVSS
notes: Divalent, Fc-dimerised molecule expressed in DG44 CHO cells
B2: FC5-agly (T299A) hFc (pEAG2345): FC5 VHH fused to the N-terminus of human IgG1 aglycosyl Fc (Fc fusion)
chain: DVQLQASGGGLVQAGGSLRLSCAASGFKITHYTMGWFRQAPGKEREFVSRITWGGDNTFYSNSVKGRFTISRDNAKNTVYLQMNSLKPEDTADYYCAAGSTSTATPLRVDYWGKGTQVTVSSA[here human IgG1 Fc with changes without letters]
notes: Divalent, Fc-dimerised molecule expressed in DG44 CHO cells; The calculated Mwt of 78,725 fits two chains; also called FC5-Fc; FC5Fc

Key:
rat TMEM30A (CDC-50A) [1] = biological target: T1, rat TMEM30A (CDC-50A); test: flow cytometry on primary rat BBB endothelial cells; 'Affinity (nM)'
rat TMEM30A (CDC-50A) [2] = biological target: T1, rat TMEM30A (CDC-50A); test: flow cytometry on Hek293 cells transiently transfected with rat TMEM30A
rat TMEM30A (CDC-50A) [3] = biological target: T1, rat TMEM30A (CDC-50A); test: flow cytometry on SV40-transformed rat BBB endothelial cells (SV-ARBEC); 'Affinity (nM)', called EC50 in paragraph 227
rat TMEM30A (CDC-50A) [4] = biological target: T1, rat TMEM30A (CDC-50A); test: flow cytometry, rat TMEM30A-transfected Hek293 cells against primary rat BBB endothelial cells
rat TMEM30A (CDC-50A) [5] = biological target: T1, rat TMEM30A (CDC-50A); test: flow cytometry, SV40-transformed against primary rat BBB endothelial cells

Binder | EC50 (rat TMEM30A (CDC-50A) [1]) [µM] | EC50 (rat TMEM30A (CDC-50A) [2]) [µM] | EC50 (rat TMEM30A (CDC-50A) [3]) [µM] | fold weaker binding on rat TMEM30A transfected Hek293 cells against primary BBB endothelial cell line (rat TMEM30A (CDC-50A) [4]) [fold] | fold weaker binding on SV40 transformed cell line against primary rat BBB endothelial cells (rat TMEM30A (CDC-50A) [5]) [fold]
B1 | 1.7 |  |  |  | 
B2 | 0.011 | ~1.7 | 0.075 | ~170 | ~7
